# The list shows a part of the results.
# Assays:
# Assay in all cases: glycan array binding signal (z-score within array); higher = stronger binding
# Settings in all cases: glycan notation: IUPAC condensed, linker removed
# [1] = target: Gal3S(b1-4)Glc
# Procedure, shortened: (§1)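 From the Consortium for Functional Glycomics database, 3228 arrays were curated, keeping only those whose protein sequence was available. Binding is given as a within-array Z-score averaged across arrays sharing a protein sequence and across linkers. Negative Z-scores can be read as non-binding.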
# [2] = target: Gal3S(b1-4)Glc6S
# Procedure, shortened: as §1
# [3] = target: Gal3S(b1-4)GlcNAc
# Procedure, shortened: as §1
# [4] = target: Gal3S(b1-4)[Fuc(a1-3)]Glc6S
# Procedure, shortened: as §1
# [5] = target: Gal3S(b1-4)[Fuc(a1-3)]GlcNAc
# Procedure, shortened: as §1
# [6] = target: Gal3S(b1-4)[Fuc(a1-3)]GlcNAc6S
# Procedure, shortened: as §1
# [7] = target: Gal3S4S(b1-4)GlcNAc
# Procedure, shortened: as §1
# [8] = target: Gal3S6S(b1-4)GlcNAc
# Procedure, shortened: as §1
# [9] = target: Gal3S6S(b1-4)GlcNAc6S
# Procedure, shortened: as §1
# [10] = target: Gal4S(b1-4)GlcNAc
# Procedure, shortened: as §1
# [11] = target: Gal4S6S(b1-4)GlcNAc
# Procedure, shortened: as §1
# [12] = target: Gal6P(b1-4)GlcNAc
# Procedure, shortened: as §1
# [13] = target: Gal6S(b1-3)GlcNAc
# Procedure, shortened: as §1
# [14] = target: Gal6S(b1-3)GlcNAc6S
# Procedure, shortened: as §1
# [15] = target: Gal6S(b1-4)Glc
# Procedure, shortened: as §1
# [16] = target: Gal6S(b1-4)Glc6S
# Procedure, shortened: as §1
# [17] = target: Gal6S(b1-4)GlcNAc
# Procedure, shortened: as §1
# [18] = target: Gal6S(b1-4)GlcNAc6S
# Procedure, shortened: as §1
# [19] = target: GalNAc(a1-3)Gal
# Procedure, shortened: as §1
# [20] = target: GalNAc(a1-3)GalNAc
# Procedure, shortened: as §1
# [21] = target: GalNAc(a1-3)GalNAc(a1-3)Gal(a1-4)Gal(b1-4)GlcNAc
# Procedure, shortened: as §1
# [22] = target: GalNAc(a1-3)GalNAc(b1-3)Gal(a1-4)Gal(b1-4)Glc
# Procedure, shortened: as §1
# [23] = target: GalNAc(b1-3)Gal
# Procedure, shortened: as §1
# [24] = target: GalNAc(b1-3)Gal(a1-4)Gal(b1-4)GlcNAc
# Procedure, shortened: as §1
# [25] = target: GalNAc(b1-3)Gal(a1-4)Gal(b1-4)GlcNAc(b1-3)Gal(b1-4)Glc
# Procedure, shortened: as §1
# [26] = target: GalNAc(b1-3)Gal(a1-6)Gal(b1-4)Glc
# Procedure, shortened: as §1
# [27] = target: GalNAc(b1-3)GalNAc
# Procedure, shortened: as §1
# [28] = target: GalNAc(b1-3)GlcNAc
# Procedure, shortened: as §1
# [29] = target: GalNAc(b1-4)Gal(b1-4)Glc
# Procedure, shortened: as §1
# [30] = target: GalNAc(b1-4)GlcNAc
# Procedure, shortened: as §1
# [31] = target: GalNAc(b1-4)GlcNAc(b1-2)Man
# Procedure, shortened: as §1
# [32] = target: GalNAc(b1-4)GlcNAc(b1-2)Man(a1-3)[GalNAc(b1-4)GlcNAc(b1-2)Man(a1-6)]Man(b1-4)GlcNAc(b1-4)GlcNAc
# Procedure, shortened: as §1
# [33] = target: GalNAc(b1-4)GlcNAc(b1-3)GalNAc(b1-4)GlcNAc
# Procedure, shortened: as §1
# [34] = target: GalNAc(b1-4)GlcNAc6S
# Procedure, shortened: as §1
# [35] = target: GalNAc(b1-6)GalNAc
# Procedure, shortened: as §1
# [36] = target: GalNAc3S(b1-4)GlcNAc
# Procedure, shortened: as §1
# [37] = target: GalNAc3S(b1-4)GlcNAc3S
# Procedure, shortened: as §1
# [38] = target: GalNAc3S(b1-4)[Fuc(a1-3)]GlcNAc
# Procedure, shortened: as §1
# [39] = target: GalNAc4S6S(b1-4)GlcNAc
# Procedure, shortened: as §1
# [40] = target: GalNAc6S(b1-4)GlcNAc
# Procedure, shortened: as §1
# [41] = target: Glc(a1-4)Glc
# Procedure, shortened: as §1
# [42] = target: Glc(a1-4)Glc(a1-4)Glc(a1-4)Glc
# Procedure, shortened: as §1
# [43] = target: Glc(a1-6)Glc(a1-6)Glc
# Procedure, shortened: as §1
# [44] = target: Glc(a1-6)Glc(a1-6)Glc(a1-6)Glc
# Procedure, shortened: as §1
# [45] = target: Glc(b1-4)Glc
# Procedure, shortened: as §1
binder,measurement,setting,value
Microvirin-2 (Microcystis aeruginosa) (protein) MPNFSHTCSSINYDPDSTILSAECQARDGEWLPTELRLSDHIGNIDGELQFGDQNFQETCQDCHLEFGDGEQSVWLVCTCQTMDGEWKSTQILLDSQIDNNDSQLEIGGSMPNFSHTCSSINYDPDSTILSAECQARDGEWLPTELRLSDHIGNIDGELQFGDQNFQETCQDCHLEFGDGEQSVWLVCTCQTMDGEWKSTQILLDSQIDNNDSQLEIG,glycan array binding signal (z-score),[1],-0.134
same,glycan array binding signal (z-score),[2],-0.128
same,glycan array binding signal (z-score),[3],-0.139
same,glycan array binding signal (z-score),[4],-0.122
same,glycan array binding signal (z-score),[5],-0.131
same,glycan array binding signal (z-score),[6],-0.13
same,glycan array binding signal (z-score),[7],-0.131
same,glycan array binding signal (z-score),[8],-0.134
same,glycan array binding signal (z-score),[9],-0.12
same,glycan array binding signal (z-score),[10],-0.139
same,glycan array binding signal (z-score),[11],-0.143
same,glycan array binding signal (z-score),[12],-0.134
same,glycan array binding signal (z-score),[13],-0.137
same,glycan array binding signal (z-score),[14],-0.144
same,glycan array binding signal (z-score),[15],-0.137
same,glycan array binding signal (z-score),[16],-0.128
same,glycan array binding signal (z-score),[17],-0.151
same,glycan array binding signal (z-score),[18],-0.142
same,glycan array binding signal (z-score),[19],-0.139
same,glycan array binding signal (z-score),[20],-0.142
same,glycan array binding signal (z-score),[21],-0.135
same,glycan array binding signal (z-score),[22],-0.145
same,glycan array binding signal (z-score),[23],-0.134
same,glycan array binding signal (z-score),[24],-0.131
same,glycan array binding signal (z-score),[25],-0.14
same,glycan array binding signal (z-score),[26],-0.13
same,glycan array binding signal (z-score),[27],-0.129
same,glycan array binding signal (z-score),[28],-0.139
same,glycan array binding signal (z-score),[29],-0.113
same,glycan array binding signal (z-score),[30],-0.122
same,glycan array binding signal (z-score),[31],-0.134
same,glycan array binding signal (z-score),[32],0.118
same,glycan array binding signal (z-score),[33],-0.131
same,glycan array binding signal (z-score),[34],-0.142
same,glycan array binding signal (z-score),[35],-0.133
same,glycan array binding signal (z-score),[36],-0.135
same,glycan array binding signal (z-score),[37],-0.133
same,glycan array binding signal (z-score),[38],-0.141
same,glycan array binding signal (z-score),[39],-0.147
same,glycan array binding signal (z-score),[40],-0.139
same,glycan array binding signal (z-score),[41],-0.134
same,glycan array binding signal (z-score),[42],-0.127
same,glycan array binding signal (z-score),[43],-0.135
same,glycan array binding signal (z-score),[44],-0.117
same,glycan array binding signal (z-score),[45],-0.132

# — the supplement of paper PMC8728848
